Data published in the supplement of paper PMC8728848.
This is one part of the list.

How the values were obtained:
Assay in all cases: glycan array binding signal (z-score within array); higher = stronger binding
Conditions in all cases: glycan notation: IUPAC condensed, linker removed
[1] = target: Gal(a1-3)Gal(b1-3)GlcNAc
How it was run: (§1)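 The Consortium for Functional Glycomics database supplied 3228 glycan arrays, of which those lacking an available protein sequence were dropped. The binding signal, a within-array Z-score, was averaged across arrays of the same protein sequence and across linkers. Negative scores can be read as non-binding.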

[2] = target: Gal(a1-3)Gal(b1-3)GlcNAc(b1-2)Man
How it was run: as §1

[3] = target: Gal(a1-3)Gal(b1-3)GlcNAc(b1-2)Man(a1-3)[Gal(a1-3)Gal(b1-3)GlcNAc(b1-2)Man(a1-6)]Man(b1-4)GlcNAc(b1-4)GlcNAc
How it was run: as §1

[4] = target: Gal(a1-3)Gal(b1-3)GlcNAc(b1-3)GalNAc
How it was run: as §1

[5] = target: Gal(a1-3)Gal(b1-3)GlcNAc(b1-6)GalNAc
How it was run: as §1

[6] = target: Gal(a1-3)Gal(b1-3)[Fuc(a1-4)]GlcNAc(b1-2)Man(a1-3)[Gal(a1-3)Gal(b1-3)[Fuc(a1-4)]GlcNAc(b1-2)Man(a1-6)]Man(b1-4)GlcNAc(b1-4)GlcNAc
How it was run: as §1

[7] = target: Gal(a1-3)Gal(b1-4)Glc
How it was run: as §1

[8] = target: Gal(a1-3)Gal(b1-4)GlcNAc
How it was run: as §1

[9] = target: Gal(a1-3)Gal(b1-4)GlcNAc(b1-2)Man
How it was run: as §1

[10] = target: Gal(a1-3)Gal(b1-4)GlcNAc(b1-2)Man(a1-3)[Gal(a1-3)Gal(b1-4)GlcNAc(b1-2)Man(a1-6)]Man(b1-4)GlcNAc(b1-4)GlcNAc
How it was run: as §1

[11] = target: Gal(a1-3)Gal(b1-4)GlcNAc(b1-3)GalNAc
How it was run: as §1

[12] = target: Gal(a1-3)Gal(b1-4)GlcNAc(b1-6)GalNAc
How it was run: as §1

[13] = target: Gal(a1-3)Gal(b1-4)[Fuc(a1-3)]GlcNAc
How it was run: as §1

[14] = target: Gal(a1-3)Gal(b1-4)[Fuc(a1-3)]GlcNAc(b1-2)Man(a1-3)[Gal(a1-3)Gal(b1-4)[Fuc(a1-3)]GlcNAc(b1-2)Man(a1-6)]Man(b1-4)GlcNAc(b1-4)GlcNAc
How it was run: as §1

[15] = target: Gal(a1-3)GalNAc
How it was run: as §1

[16] = target: Gal(a1-3)[Gal(a1-4)]Gal(b1-4)GlcNAc
How it was run: as §1

[17] = target: Gal(a1-4)Gal(b1-3)GlcNAc(b1-2)Man(a1-3)[Gal(a1-4)Gal(b1-3)GlcNAc(b1-2)Man(a1-6)]Man(b1-4)GlcNAc(b1-4)GlcNAc
How it was run: as §1

[18] = target: Gal(a1-4)Gal(b1-4)Glc
How it was run: as §1

[19] = target: Gal(a1-4)Gal(b1-4)GlcNAc
How it was run: as §1

[20] = target: Gal(a1-4)Gal(b1-4)GlcNAc(b1-2)Man(a1-3)[Gal(a1-4)Gal(b1-4)GlcNAc(b1-2)Man(a1-6)]Man(b1-4)GlcNAc(b1-4)GlcNAc
How it was run: as §1

[21] = target: Gal(a1-4)Gal(b1-4)GlcNAc(b1-3)Gal(b1-4)Glc
How it was run: as §1

[22] = target: Gal(a1-4)GlcNAc
How it was run: as §1

[23] = target: Gal(a1-6)Glc
How it was run: as §1

[24] = target: Gal(b1-2)Gal
How it was run: as §1

[25] = target: Gal(b1-3)Gal
How it was run: as §1

[26] = target: Gal(b1-3)Gal(b1-4)GlcNAc
How it was run: as §1

[27] = target: Gal(b1-3)GalNAc
How it was run: as §1

[28] = target: Gal(b1-3)GalNAc(a1-3)[Fuc(a1-2)]Gal(b1-4)Glc
How it was run: as §1

[29] = target: Gal(b1-3)GalNAc(a1-3)[Fuc(a1-2)]Gal(b1-4)GlcNAc
How it was run: as §1

[30] = target: Gal(b1-3)GalNAc(b1-3)Gal
How it was run: as §1

[31] = target: Gal(b1-3)GalNAc(b1-3)Gal(a1-4)Gal(b1-4)Glc
How it was run: as §1

[32] = target: Gal(b1-3)GalNAc(b1-4)Gal(b1-4)Glc
How it was run: as §1

[33] = target: Gal(b1-3)GalNAc(b1-4)[Neu5Ac(a2-3)]Gal(b1-4)Glc
How it was run: as §1

[34] = target: Gal(b1-3)GlcNAc
How it was run: as §1

[35] = target: Gal(b1-3)GlcNAc(a1-3)Gal(b1-4)GlcNAc
How it was run: as §1

[36] = target: Gal(b1-3)GlcNAc(a1-6)Gal(b1-4)GlcNAc
How it was run: as §1

[37] = target: Gal(b1-3)GlcNAc(b1-2)Man
How it was run: as §1

[38] = target: Gal(b1-3)GlcNAc(b1-2)Man(a1-3)[Gal(b1-3)GlcNAc(b1-2)Man(a1-6)]Man(b1-4)GlcNAc(b1-4)GlcNAc
How it was run: as §1

B1: PLU (Photorhabdus luminiscence) (protein)
chain: HHHHHHENLYFQSSIVFASIDPRSNPLQTSSQNYVDIPGLKLDVSKYSNSPCLTALITLNIPTPYASGNNFPGGNFAIVTDQGEQLAYGGFTYSSKIPENSGRMPFTLVARYSLASNVSTIKAQWSNIRGSTVHIDSYASISAVIQCNQLV
Q: How did the “glycan array binding signal (z-score)” value [1] turn out when B1 was run?
A: -0.229

Q: And the “glycan array binding signal (z-score)” value [2]?
A: -0.235

Q: What about the “glycan array binding signal (z-score)” value [3] of the same binder?
A: -0.263

Q: What about the “glycan array binding signal (z-score)” value [4] of the same binder?
A: -0.249

Q: What about the “glycan array binding signal (z-score)” value [5] of the same binder?
A: -0.253

Q: And the “glycan array binding signal (z-score)” value [6]?
A: -0.018

Q: What about the “glycan array binding signal (z-score)” value [7] of the same binder?
A: -0.284

Q: And the “glycan array binding signal (z-score)” value [8]?
A: -0.298

Q: What about the “glycan array binding signal (z-score)” value [9] of the same binder?
A: -0.304

Q: And the “glycan array binding signal (z-score)” value [10]?
A: -0.135

Q: And the “glycan array binding signal (z-score)” value [11]?
A: -0.331

Q: And the “glycan array binding signal (z-score)” value [12]?
A: -0.319

Q: What about the “glycan array binding signal (z-score)” value [13] of the same binder?
A: -0.21

Q: What about the “glycan array binding signal (z-score)” value [14] of the same binder?
A: -0.243

Q: And the “glycan array binding signal (z-score)” value [15]?
A: -0.335

Q: And the “glycan array binding signal (z-score)” value [16]?
A: -0.209

Q: What about the “glycan array binding signal (z-score)” value [17] of the same binder?
A: -0.207

Q: What about the “glycan array binding signal (z-score)” value [18] of the same binder?
A: -0.261

Q: And the “glycan array binding signal (z-score)” value [19]?
A: -0.199

Q: And the “glycan array binding signal (z-score)” value [20]?
A: -0.137

Q: And the “glycan array binding signal (z-score)” value [21]?
A: -0.328

Q: What about the “glycan array binding signal (z-score)” value [22] of the same binder?
A: -0.279

Q: What about the “glycan array binding signal (z-score)” value [23] of the same binder?
A: -0.207

Q: And the “glycan array binding signal (z-score)” value [24]?
A: -0.267

Q: And the “glycan array binding signal (z-score)” value [25]?
A: -0.312

Q: What about the “glycan array binding signal (z-score)” value [26] of the same binder?
A: -0.36

Q: And the “glycan array binding signal (z-score)” value [27]?
A: -0.286

Q: What about the “glycan array binding signal (z-score)” value [28] of the same binder?
A: -0.291

Q: What about the “glycan array binding signal (z-score)” value [29] of the same binder?
A: -0.263

Q: What about the “glycan array binding signal (z-score)” value [30] of the same binder?
A: -0.345

Q: What about the “glycan array binding signal (z-score)” value [31] of the same binder?
A: -0.112

Q: And the “glycan array binding signal (z-score)” value [32]?
A: -0.265

Q: What about the “glycan array binding signal (z-score)” value [33] of the same binder?
A: -0.29

Q: What about the “glycan array binding signal (z-score)” value [34] of the same binder?
A: -0.268

Q: What about the “glycan array binding signal (z-score)” value [35] of the same binder?
A: -0.293

Q: What about the “glycan array binding signal (z-score)” value [36] of the same binder?
A: -0.297

Q: What about the “glycan array binding signal (z-score)” value [37] of the same binder?
A: -0.26

Q: What about the “glycan array binding signal (z-score)” value [38] of the same binder?
A: -0.194
